In the supplement of paper PMC7580552:
Structures can show the parent of a compound that is named as a salt. The list shows a part of the results. Single values are uncertain, as repeats are few or missing.

What follows are compounds tested on Escherichia coli W3110 (assay: planktonic growth (OD600) relative to untreated control; higher = more growth). Settings: 10 µM; 20-24 h; 30 °C; TB.
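Further: stationary (unshaken) cultures in 96-well plates, started at OD600 0.05 from mid-exponential cells, with compounds supplied from DMSO stocks.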

SMILES	planktonic growth [%]
Oc1ccc(C2CNCCc3c2cc(O)c(O)c3Cl)cc1 (configuration not stated) [Fenoldopam]	80
CC(=O)OCC(=O)NCCCOc1cccc(CN2CCCCC2)c1 [Roxatidine Acetate hydrochloride]	98
CCn1cc(C(=O)O)c(=O)c2cc(F)c(N3CCNCC3)nc21 [Enoxacin]	27
CCCCCCCCCCCCCCCC[N+](C)(C)CCN(Cc1ccc(OC)cc1)c1ncccn1 [Thonzonium bromide]	54
CCN(CC)CCCC(C)Nc1c2ccc(Cl)cc2nc2ccc(OC)cc12 (configuration not stated) [Quinacrine dihydrochloride hydrate]	112
CC(=O)N1CCN(c2ccc(OCC3COC(Cn4ccnc4)(c4ccc(Cl)cc4Cl)O3)cc2)CC1 (configuration not stated) [Ketoconazole]	104
CN(CCOc1ccc(NS(C)(=O)=O)cc1)CCc1ccc(NS(C)(=O)=O)cc1 [Dofetilide]	93
C#C[C@]1(O)CC[C@H]2[C@@H]3CCc4cc(OC)ccc4[C@H]3CC[C@@]21C [Ethynylestradiol 3-methyl ether]	100
CC(C)NCC(O)c1ccc(NS(C)(=O)=O)cc1 (configuration not stated) [Sotalol hydrochloride]	108
CCOC(=O)Nc1ccc2c(c1)N(C(=O)CCN1CCOCC1)c1ccccc1S2 [Moricizine hydrochloride]	93
COC(=O)[C@H]1[C@H]2C[C@@H]3c4[nH]c5cc(OC)ccc5c4CCN3C[C@H]2C[C@@H](OC(=O)c2cc(OC)c(OC)c(OC)c2)[C@@H]1OC [Reserpine]	102
CNC(=C[N+](=O)[O-])NCCSCc1ccc(CN(C)C)o1 [Ranitidine hydrochloride]	111
CC(C)C[C@H](NC(=O)[C@@H](O)[C@H](N)Cc1ccccc1)C(=O)O [Ubenimex]	100
C[C@]12C=CC(=O)C=C1CC[C@@H]1[C@@H]2[C@@H](O)C[C@@]2(C)[C@H]1CC[C@]2(O)C(=O)CO [Prednisolone]	92
O=c1[nH]cc(F)c(=O)[nH]1 [5-fluorouracil]	78
CS(=O)(=O)c1ccc([C@@H](O)[C@@H](CO)NC(=O)C(Cl)Cl)cc1 [Thiamphenicol]	80
CC(C)Cc1ccc([C@H](C)C(=O)O)cc1 [S-(+)-ibuprofen]	92
CC(=O)Oc1cc(C(F)(F)F)ccc1C(=O)O [Triflusal]	106
C[C@@H](c1ncncc1F)[C@](O)(Cn1cncn1)c1ccc(F)cc1F [Voriconazole]	98
O=C(O)Cc1ccccc1Nc1c(Cl)cccc1Cl [Diclofenac sodium]	95
CN1CCN(CCCN2c3ccccc3Sc3ccc(S(=O)(=O)N(C)C)cc32)CC1 [Thioproperazine dimesylate]	94
CC(=O)O[C@]1(C(C)=O)CC[C@H]2[C@@H]3C=C(C)C4=CC(=O)CC[C@@H]4[C@H]3CC[C@@]21C [Nomegestrol acetate]	93
NS(=O)(=O)c1cc2c(cc1Cl)N=C(CSCc1ccccc1)NS2(=O)=O [Benzthiazide]	93
O=C1C(CC[S+]([O-])c2ccccc2)C(=O)N(c2ccccc2)N1c1ccccc1 (configuration not stated) [Sulfinpyrazone]	109

SMILES	planktonic growth [%]
Nc1ccc(S(=O)(=O)Nc2ncccn2)cc1 [Sulfadiazine]	62
C#C[C@]1(OC(C)=O)CC[C@H]2[C@@H]3CCC4=C[C@@H](OC(C)=O)CC[C@@H]4[C@H]3CC[C@@]21C [Ethynodiol diacetate]	95
C#C[C@]1(O)CC[C@H]2[C@@H]3CCC4=CC(=O)CC[C@@H]4[C@H]3CC[C@@]21C [Norethindrone]	89
CO[C@@]1(NC(=O)C(C(=O)O)c2ccc(O)cc2)C(=O)N2C(C(=O)O)=C(CSc3nnnn3C)CO[C@@H]21 (some centres not stated) [Moxalactam disodium salt]	19
COC(=O)C1=C(C)NC(C)=C(C(=O)OC)C1c1ccccc1[N+](=O)[O-] [Nifedipine]	93
Cc1cc(NC(=O)C2=C(O)c3ccccc3S(=O)(=O)N2C)no1 [Isoxicam]	102
Cc1cc(C(C)(C)CC(C)(C)C)ccc1OCCOCC[N+](C)(C)Cc1ccccc1 [Methyl benzethonium chloride]	62
CN(C)CCCN1c2ccccc2CCc2ccc(Cl)cc21 [Clomipramine hydrochloride]	96
CO[C@@]1(NC(=O)C2SC(=C(C(N)=O)C(=O)O)S2)C(=O)N2C(C(=O)O)=C(CSc3nnnn3C)CS[C@@H]21 (some centres not stated) [Cefotetan]	1
CCN(CC)CCOC(=O)C1(c2ccc([N+](=O)[O-])cc2)CCCC1 [Nitrocaramiphen hydrochloride]	99
Clc1ccccc1CN1CCc2sccc2C1 [Ticlopidine hydrochloride]	104
Nc1ccc(O)c(C(=O)O)c1 [Mesalamine]	94
CC(c1cc2ccccc2s1)N(O)C(N)=O (configuration not stated) [Zileuton]	98
CC(=O)Oc1cc(C(C)C)c(OCCN(C)C)cc1C [Moxisylyte hydrochoride]	106
O=c1[nH]c(=O)n([C@H]2C[C@H](O)[C@@H](CO)O2)cc1F [Floxuridine]	86
CNNCc1ccc(C(=O)NC(C)C)cc1 [Procarbazine hydrochloride]	99
C[N+]1(C)CCC(=C(c2ccccc2)c2ccccc2)CC1 [Diphemanil methylsulfate]	101
NS(=O)(=O)c1cc2c(cc1Cl)NCNS2(=O)=O [Hydrochlorothiazide]	107
CN(C)CCc1c[nH]c2ccc(C[C@H]3COC(=O)N3)cc12 [Zolmitriptan]	94
CN(C)CCC=C1c2ccccc2C=Cc2ccccc21 [Cyclobenzaprine hydrochloride]	106
CC(C)OC(=O)CCC/C=C\C[C@@H]1[C@@H](CC[C@@H](O)CCc2ccccc2)[C@H](O)C[C@@H]1O [Latanoprost]	89
COc1cc(C)c(/C=C/C(C)=C/C=C/C(C)=C/C(=O)O)c(C)c1C [Acitretin]	99
Nc1ccc(S(=O)(=O)Nc2ccc(Cl)nn2)cc1 [Sulfachloropyridazine]	68
